For 40 molecules, cytotoxicity call and growth inhibition call results are on record in the antibiotic and cytotoxicity screens of Wong et al. (2023).

Some of the results follow.

The first experiment has as its system HepG2. The experiment in a line: cytotoxicity call (relative viability < 0.9). The following applies: 10 µM.
In the case of `COc1ncnc(OC)c1C`, the cytotoxicity call was “inactive”.

`C[C@H]1CN([C@@H](C)CO)C(=O)c2cc(NS(=O)(=O)c3ccc(Cl)cc3)ccc2O[C@H]1CN(C)Cc1ccc(Oc2ccccc2)cc1`: the cytotoxicity call was “inactive”. Regarding `C[C@H](CO)N1C[C@H](C)[C@@H](CN(C)C(=O)Nc2cccc(C(F)(F)F)c2)OCc2cnnn2CCCC1=O`, the cytotoxicity call is “inactive”.

For the molecule `O=C(CNc1ccc2c(c1)oc1ccccc12)c1ccc(F)cc1`, the cytotoxicity call is “inactive”. With `Cc1ccc(S(=O)(=O)Nc2ccc3c(c2)CC(=O)N([C@H](C)CO)C[C@@H](C)[C@H](CN(C)Cc2ccc(-c4ccccc4)cc2)O3)cc1`, the cytotoxicity call was “active”. Same read-out and setting: next, `C[C@@H]1CCCCO[C@H](CN(C)Cc2ccccc2)[C@@H](C)CN([C@@H](C)CO)C(=O)c2cc(NS(=O)(=O)c3ccc(Cl)cc3)ccc2O1`: “inactive”; `COc1ccc2c3c(n(c2c1)C)[C@@H](CO)N(C[C@]13CCN(CC1)C(=O)CN1CCOCC1)C(=O)Nc1ccc(cc1)F`: “inactive”. On to `C[C@H](CO)N1C[C@H](C)[C@H](CN(C)S(=O)(=O)c2cccc(F)c2)Oc2ncc(C#Cc3cccc(F)c3)cc2C1=O`, for which the cytotoxicity call is “inactive”. As for `Cc1nc2[nH]c(C)c(CCC(=O)O)c(=O)n2n1`, the cytotoxicity call is “inactive”. Regarding `O=C(O)c1ccoc1`, the cytotoxicity call was “inactive”. Regarding `C[C@@H]1CN([C@H](C)CO)C(=O)c2cc(NC(=O)Nc3ccc4c(c3)OCO4)ccc2O[C@@H](C)CCCCO[C@H]1CN(C)C(=O)Cc1ccccc1`, the cytotoxicity call was “inactive”. In the case of `C[C@@H]1CN([C@@H](C)CO)C(=O)c2cc(NC(=O)Nc3ccc(F)cc3)ccc2O[C@@H](C)CCCCO[C@@H]1CN(C)S(=O)(=O)c1cccs1`, the cytotoxicity call is “inactive”. Consider `C[C@@H]1CCCCO[C@@H](CN(C)Cc2ccccc2)[C@@H](C)CN([C@H](C)CO)C(=O)c2cc(NC(=O)Nc3ccc(F)cc3)ccc2O1`, for which the cytotoxicity call is “inactive”. With `COc1ccc(-c2cnc3c(c2)C(=O)N([C@H](C)CO)C[C@H](C)[C@H](CN(C)S(=O)(=O)c2cccc(OC)c2)O3)cc1`, the cytotoxicity call was “inactive”. As to `C[C@H]1CN([C@@H](C)CO)C(=O)c2cccc(NC(=O)Nc3ccc4c(c3)OCO4)c2O[C@H]1CN(C)S(C)(=O)=O`, the cytotoxicity call was “inactive”. The same measure, in the same setting: next, `COCc1nnc2n1CCN(C(=O)c1ccn[nH]1)C2`: “inactive”; `O=C(N[C@H]1CCN(C(=O)c2cc(C(F)(F)F)cc(C(F)(F)F)c2)[C@H](Cc2ccc(Cl)cc2)C1)c1ccnc2ccccc12`: “inactive”. For `C[C@H](CO)N1C[C@H](C)[C@H](CN(C)S(=O)(=O)c2cccc(F)c2)Oc2ncc(Br)cc2C1=O`, the cytotoxicity call was “inactive”.

Consider `C[C@H](CO)N1C[C@H](C)[C@@H](CN(C)C(=O)Nc2ccccc2)OCCCC[C@H](C)Oc2ccc(NS(=O)(=O)c3ccc(Cl)cc3)cc2C1=O`, for which the cytotoxicity call is “inactive”. Turning to `COc1ccc(S(=O)(=O)Nc2cccc3c2O[C@H](CN(C)S(=O)(=O)c2ccc(C)cc2)[C@H](C)CN([C@H](C)CO)C3=O)cc1`, the cytotoxicity call was “inactive”. Turning to `CC(C)NC(=O)N(C)C[C@@H]1OCCCC[C@@H](C)Oc2ccc(NC(=O)Nc3ccc(F)cc3)cc2C(=O)N([C@@H](C)CO)C[C@H]1C`, the cytotoxicity call is “inactive”. Take `Clc1ccc(Sc2ccc(-c3ccccn3)s2)cc1`: the cytotoxicity call is “inactive”.

Consider `CCNC(=O)[C@@H]1[C@@H](CO)[C@@H]2Cn3c(ccc(-c4cccc(C(=O)N(C)C)c4)c3=O)[C@H]1N2`, for which the cytotoxicity call is “inactive”. Still for that read-out and setting: with `O=C(C[C@H]1CC[C@@H](NC(=O)c2cnccn2)[C@H](CO)O1)NCc1ccccc1F` the entry was “inactive”; with `O=C1C2C=CC([C@H]3[C@@H]2C=CC(=O)[C@]32CO2)[C@@]12CO2` (some centres undefined), “inactive”. On to `Cc1noc(C)c1NC(=O)Nc1ccc2c(c1)C(=O)N([C@H](C)CO)C[C@H](C)[C@@H](CN(C)C(=O)Nc1ccccc1)OCCCC[C@@H](C)O2`, for which the cytotoxicity call is “inactive”.

For the molecule `COc1ccc(NC(=O)N(C)C[C@@H]2Oc3c(NC(=O)c4cc(C)nn4C)cccc3C(=O)N([C@H](C)CO)C[C@@H]2C)cc1`, the cytotoxicity call was “inactive”. With `CC(=O)c1ccc[nH]1`, the cytotoxicity call was “inactive”. Consider `Nc1ncnc2[nH]cnc12`, for which the cytotoxicity call was “inactive”.

The next experiment has as its system S. aureus RN4220. Briefly: growth inhibition call (relative growth <= 0.2). The following applies: 50 µM.
Consider `C[C@@H]1CN([C@H](C)CO)C(=O)c2c(c3ccccc3n2C)-c2ccccc2CO[C@@H]1CN(C)Cc1ccc2c(c1)OCO2`, for which the growth inhibition call was “inactive”. Consider `C[C@H](CO)N1C[C@H](C)[C@@H](CN(C)Cc2ccc(C(=O)O)cc2)Oc2ccc(NC(=O)CCN3CCOCC3)cc2CC1=O`, for which the growth inhibition call is “inactive”.

For the molecule `NC[C@H]1OB(O)c2c(OCCO)ccc(Cl)c21`, the growth inhibition call was “inactive”. Turning to `C[C@H](CO)N1C[C@H](C)[C@H](CN(C)S(=O)(=O)c2cccs2)Oc2ccc(NS(=O)(=O)c3cccs3)cc2C1=O`, the growth inhibition call is “inactive”. Take `Cc1noc(C)c1NC(=O)N(C)C[C@@H]1OCCCC[C@@H](C)Oc2ccc(NS(=O)(=O)c3cccs3)cc2C(=O)N([C@@H](C)CO)C[C@H]1C`: the growth inhibition call is “inactive”. Take `CC(C)(C)[S@@](=O)N1Cc2cc(C(=O)N[C@H]3CCN(Cc4ccccc4)C3)nc(-c3cccc(-c4ccncc4)c3)c2[C@H]1CCO`: the growth inhibition call was “inactive”. Turning to `C[C@@H]1CN([C@@H](C)CO)C(=O)Cc2cc(NC(=O)Nc3ccc(F)cc3)ccc2O[C@H]1CN(C)Cc1ccc(-c2ccccc2)cc1`, the growth inhibition call was “inactive”. On the same count and under the same terms, next, `NCc1ccc(Br)s1`: “inactive”; `C[C@H](CO)N1C[C@H](C)[C@@H](CN(C)Cc2ccc(-c3ccccc3)cc2)Oc2ccc(NC(=O)Cn3cnnn3)cc2CC1=O`: “inactive”. Regarding `C[C@@H]1CN([C@@H](C)CO)C(=O)Cc2cc(NC(=O)Nc3ccc(C(F)(F)F)cc3)ccc2O[C@@H]1CN(C)Cc1ccc(C(=O)Nc2ccccc2N)cc1`, the growth inhibition call is “inactive”. With `COCC#Cc1ccc2c(c1)O[C@H](CN(C)C(=O)COC)[C@@H](C)CN([C@@H](C)CO)S2(=O)=O`, the growth inhibition call is “inactive”. Take `COc1ncnc(OC)c1C`: the growth inhibition call was “inactive”. Consider `C[C@H]1CN([C@@H](C)CO)C(=O)c2cc(NS(=O)(=O)c3ccc(Cl)cc3)ccc2O[C@H]1CN(C)Cc1ccc(Oc2ccccc2)cc1`, for which the growth inhibition call is “inactive”. Turning to `C[C@H](CO)N1C[C@H](C)[C@@H](CN(C)C(=O)Nc2cccc(C(F)(F)F)c2)OCc2cnnn2CCCC1=O`, the growth inhibition call is “inactive”. On to `O=C(CNc1ccc2c(c1)oc1ccccc12)c1ccc(F)cc1`, for which the growth inhibition call was “inactive”. Consider `Cc1ccc(S(=O)(=O)Nc2ccc3c(c2)CC(=O)N([C@H](C)CO)C[C@@H](C)[C@H](CN(C)Cc2ccc(-c4ccccc4)cc2)O3)cc1`, for which the growth inhibition call was “inactive”. On the same count and under the same terms, next, `C[C@@H]1CCCCO[C@H](CN(C)Cc2ccccc2)[C@@H](C)CN([C@@H](C)CO)C(=O)c2cc(NS(=O)(=O)c3ccc(Cl)cc3)ccc2O1`: “inactive”; `COc1ccc2c3c(n(c2c1)C)[C@@H](CO)N(C[C@]13CCN(CC1)C(=O)CN1CCOCC1)C(=O)Nc1ccc(cc1)F`: “inactive”; `C[C@H](CO)N1C[C@H](C)[C@H](CN(C)S(=O)(=O)c2cccc(F)c2)Oc2ncc(C#Cc3cccc(F)c3)cc2C1=O`: “inactive”. As to `Cc1nc2[nH]c(C)c(CCC(=O)O)c(=O)n2n1`, the growth inhibition call was “inactive”. As to `O=C(O)c1ccoc1`, the growth inhibition call is “inactive”. On to `C[C@@H]1CN([C@H](C)CO)C(=O)c2cc(NC(=O)Nc3ccc4c(c3)OCO4)ccc2O[C@@H](C)CCCCO[C@H]1CN(C)C(=O)Cc1ccccc1`, for which the growth inhibition call is “inactive”. Take `C[C@@H]1CN([C@@H](C)CO)C(=O)c2cc(NC(=O)Nc3ccc(F)cc3)ccc2O[C@@H](C)CCCCO[C@@H]1CN(C)S(=O)(=O)c1cccs1`: the growth inhibition call is “inactive”. Take `C[C@@H]1CCCCO[C@@H](CN(C)Cc2ccccc2)[C@@H](C)CN([C@H](C)CO)C(=O)c2cc(NC(=O)Nc3ccc(F)cc3)ccc2O1`: the growth inhibition call is “inactive”. In the case of `COc1ccc(-c2cnc3c(c2)C(=O)N([C@H](C)CO)C[C@H](C)[C@H](CN(C)S(=O)(=O)c2cccc(OC)c2)O3)cc1`, the growth inhibition call is “inactive”. As for `C[C@H]1CN([C@@H](C)CO)C(=O)c2cccc(NC(=O)Nc3ccc4c(c3)OCO4)c2O[C@H]1CN(C)S(C)(=O)=O`, the growth inhibition call was “inactive”. `COCc1nnc2n1CCN(C(=O)c1ccn[nH]1)C2`: the growth inhibition call is “inactive”. For `O=C(N[C@H]1CCN(C(=O)c2cc(C(F)(F)F)cc(C(F)(F)F)c2)[C@H](Cc2ccc(Cl)cc2)C1)c1ccnc2ccccc12`, the growth inhibition call is “inactive”. Consider `C[C@H](CO)N1C[C@H](C)[C@H](CN(C)S(=O)(=O)c2cccc(F)c2)Oc2ncc(Br)cc2C1=O`, for which the growth inhibition call is “inactive”.

Regarding `C[C@H](CO)N1C[C@H](C)[C@@H](CN(C)C(=O)Nc2ccccc2)OCCCC[C@H](C)Oc2ccc(NS(=O)(=O)c3ccc(Cl)cc3)cc2C1=O`, the growth inhibition call was “inactive”. For `COc1ccc(S(=O)(=O)Nc2cccc3c2O[C@H](CN(C)S(=O)(=O)c2ccc(C)cc2)[C@H](C)CN([C@H](C)CO)C3=O)cc1`, the growth inhibition call was “inactive”.

As to `CC(C)NC(=O)N(C)C[C@@H]1OCCCC[C@@H](C)Oc2ccc(NC(=O)Nc3ccc(F)cc3)cc2C(=O)N([C@@H](C)CO)C[C@H]1C`, the growth inhibition call was “inactive”.

For the molecule `Clc1ccc(Sc2ccc(-c3ccccn3)s2)cc1`, the growth inhibition call is “inactive”. For `CCNC(=O)[C@@H]1[C@@H](CO)[C@@H]2Cn3c(ccc(-c4cccc(C(=O)N(C)C)c4)c3=O)[C@H]1N2`, the growth inhibition call is “inactive”. Take `O=C(C[C@H]1CC[C@@H](NC(=O)c2cnccn2)[C@H](CO)O1)NCc1ccccc1F`: the growth inhibition call is “inactive”.

As for `O=C1C2C=CC([C@H]3[C@@H]2C=CC(=O)[C@]32CO2)[C@@]12CO2` (some centres undefined), the growth inhibition call is “inactive”. As to `Cc1noc(C)c1NC(=O)Nc1ccc2c(c1)C(=O)N([C@H](C)CO)C[C@H](C)[C@@H](CN(C)C(=O)Nc1ccccc1)OCCCC[C@@H](C)O2`, the growth inhibition call is “inactive”. `COc1ccc(NC(=O)N(C)C[C@@H]2Oc3c(NC(=O)c4cc(C)nn4C)cccc3C(=O)N([C@H](C)CO)C[C@@H]2C)cc1`: the growth inhibition call was “inactive”.

Turning to `CC(=O)c1ccc[nH]1`, the growth inhibition call is “inactive”. As for `Nc1ncnc2[nH]cnc12`, the growth inhibition call was “inactive”.
